The BET-seq Pho4 binding data (Le et al. 2018)
The list shows a part of the results. These are noisy estimates, calculated here from bound and input reads.

These sequences were tested against T1, Pho4 (S. cerevisiae) (UniProt P07270) (assay: relative binding free energy (BET-seq); higher = weaker binding). Conditions: reference: library average.
T1 sequence: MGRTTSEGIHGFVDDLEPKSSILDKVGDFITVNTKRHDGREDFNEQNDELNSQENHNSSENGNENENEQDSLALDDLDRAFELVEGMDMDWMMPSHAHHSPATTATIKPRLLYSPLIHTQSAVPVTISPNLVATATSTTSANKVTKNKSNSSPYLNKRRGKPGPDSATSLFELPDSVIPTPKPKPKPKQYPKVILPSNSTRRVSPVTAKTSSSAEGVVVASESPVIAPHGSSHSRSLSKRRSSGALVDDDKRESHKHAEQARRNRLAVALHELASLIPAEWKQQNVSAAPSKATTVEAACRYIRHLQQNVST

Sequence	relative binding free energy
GGGGCCACGTGGTGCA	-0.19 kcal/mol
ATATTCACGTGGTTGG	0.18 kcal/mol
GTTGGCACGTGAGCTA	0 kcal/mol
GGTTTCACGTGTGTAT	0.24 kcal/mol
GGGGACACGTGTATTA	-0.09 kcal/mol
TTTTGCACGTGGGTAC	-0.02 kcal/mol
GGCCGCACGTGTGGTC	0.16 kcal/mol
GGAGCCACGTGGGTTG	-0.16 kcal/mol
TTTGGCACGTGATTAG	0.04 kcal/mol
TGTATCACGTGGTTGT	0.14 kcal/mol
GGGTGCACGTGTTCAG	-0.03 kcal/mol
CTGTTCACGTGTGGTG	0.26 kcal/mol
GTATTCACGTGTTAAG	0.23 kcal/mol
CGCCGCACGTGGGGGT	-0.32 kcal/mol
GATGTCACGTGGGTGA	-0.03 kcal/mol
CAGTGCACGTGTTGCG	0.03 kcal/mol
GGAACCACGTGGGGGC	-0.11 kcal/mol
TTGTGCACGTGCCAGT	-0.12 kcal/mol
TTCATCACGTGTCAGG	0.26 kcal/mol
CGCTTCACGTGGTTGT	0.28 kcal/mol
GCTGTCACGTGATAGT	0.38 kcal/mol
GATAGCACGTGTCGTT	-0.03 kcal/mol
TAATGCACGTGTATGT	0.12 kcal/mol
AGTTCCACGTGTTGAG	0.23 kcal/mol
AGGTGCACGTGAGGGA	0.25 kcal/mol

Sequence	relative binding free energy
TTGAGCACGTGTGGGC	-0.14 kcal/mol
GGCTGCACGTGGGTAT	-0.17 kcal/mol
TGGGTCACGTGAATAA	0.3 kcal/mol
GGTAACACGTGTCGTG	-0.08 kcal/mol
GTAATCACGTGAGAAT	0.55 kcal/mol
AGATTCACGTGGTAAA	0.19 kcal/mol
AAGGCCACGTGGTGTG	-0.18 kcal/mol
TACATCACGTGGGGTA	-0.12 kcal/mol
GAGAGCACGTGCTGGG	-0.2 kcal/mol
AGAGTCACGTGTGTAG	0.11 kcal/mol
CGGTACACGTGTGTAT	0.09 kcal/mol
TTTTCCACGTGTAGGT	0.05 kcal/mol
TGCGCCACGTGGTGGG	-0.09 kcal/mol
TTTGACACGTGGTCAT	-0.1 kcal/mol
GTGTGCACGTGGTGCC	-0.16 kcal/mol
GTTCTCACGTGATCGG	0.47 kcal/mol
TGGAGCACGTGGAGTA	-0.11 kcal/mol
CGTAACACGTGAGGTT	0.13 kcal/mol
CTGCTCACGTGTTTTG	0.19 kcal/mol
TTAGTCACGTGGCTTG	0.1 kcal/mol
GGCTACACGTGGTAGG	-0.02 kcal/mol
TGGTGCACGTGTGTTT	0.07 kcal/mol
GTGCGCACGTGGGGTC	-0.23 kcal/mol
AGTAACACGTGCGGTT	-0.02 kcal/mol
CAGGTCACGTGTGGAT	0.24 kcal/mol

Sequence	relative binding free energy
CGGTTCACGTGGATGA	0.45 kcal/mol
AGGGACACGTGTTGCT	0.01 kcal/mol
AATTGCACGTGGTATC	-0.02 kcal/mol
GTAAACACGTGGTTTA	-0.05 kcal/mol
GGTGTCACGTGAGAGT	0.36 kcal/mol
GTTTACACGTGGTTAG	0.08 kcal/mol
CTTAACACGTGGTTTA	0.02 kcal/mol
GTAGACACGTGCAGGG	-0.02 kcal/mol
TATTGCACGTGCGGGA	0.03 kcal/mol
GTCATCACGTGTTGTA	0.18 kcal/mol
TTGGGCACGTGTGAAA	0.05 kcal/mol
GTATTCACGTGGTTTT	0.21 kcal/mol
CAGAGCACGTGATGGT	0.11 kcal/mol
CATTTCACGTGGGCAT	0.28 kcal/mol
GCGGACACGTGTGGCG	0.11 kcal/mol
CTTGGCACGTGGGCTG	-0.33 kcal/mol
AGTTTCACGTGCTGGT	0.15 kcal/mol
GGGGACACGTGCGGGA	-0.03 kcal/mol
TGTTGCACGTGGACTT	0.18 kcal/mol
AAGGTCACGTGCTGGG	0.06 kcal/mol
TATTTCACGTGATGTG	0.33 kcal/mol
CGACTCACGTGGGGAG	0.13 kcal/mol
CGGTTCACGTGGAGAA	0.31 kcal/mol
ACGTGCACGTGGGGTC	-0.13 kcal/mol
ACGGTCACGTGGAGTT	0.11 kcal/mol

Sequence	relative binding free energy
TAGGGCACGTGAATGT	0.1 kcal/mol
TAGGGCACGTGCGTTA	-0.19 kcal/mol
TATGTCACGTGTTGCA	0.05 kcal/mol
AGAAACACGTGGGTGG	-0.07 kcal/mol
TGTATCACGTGGTCTT	0.04 kcal/mol
GTAGTCACGTGATTTG	0.23 kcal/mol
TAGGTCACGTGGGCAG	-0.01 kcal/mol
ATGTTCACGTGCCGGG	0.24 kcal/mol
TGAAACACGTGAGGGA	0.17 kcal/mol
TAAGACACGTGTAAGT	0.13 kcal/mol
TAAATCACGTGATGGG	0.25 kcal/mol
GGGATCACGTGGTCAG	0.09 kcal/mol
CAGTTCACGTGGCATG	0.35 kcal/mol
GTGGGCACGTGAAATT	0.28 kcal/mol
CACGTCACGTGGGGTT	-0.07 kcal/mol
TGTAGCACGTGATTTC	0.18 kcal/mol
TCTGGCACGTGGTGCT	-0.2 kcal/mol
CGGTTCACGTGTAGAA	0.27 kcal/mol
ATGCGCACGTGTGCGG	-0.21 kcal/mol
GTTATCACGTGCAGTA	0.22 kcal/mol
GTGCGCACGTGTGACG	0.04 kcal/mol
CTGTTCACGTGTGAGA	0.19 kcal/mol
TCGGCCACGTGATGGG	0.17 kcal/mol
TGTACCACGTGGGTGA	-0.28 kcal/mol
TTTGTCACGTGTTACA	0.16 kcal/mol

Sequence	relative binding free energy
GGGTTCACGTGTTGCC	0.47 kcal/mol
TCGCGCACGTGGGCGG	-0.33 kcal/mol
AGCAACACGTGTGTTG	-0.07 kcal/mol
TGATGCACGTGGTTAT	-0.17 kcal/mol
GTATGCACGTGGTTCT	-0.03 kcal/mol
TGAGTCACGTGCTAGT	0.14 kcal/mol
CTTGTCACGTGGCGTA	0.06 kcal/mol
TATTTCACGTGGGCAT	0.19 kcal/mol
ATGAGCACGTGCTGTG	-0.22 kcal/mol
ATCATCACGTGCTTGT	0.3 kcal/mol
AGGTACACGTGGAATG	0.2 kcal/mol
TCATTCACGTGGGGTG	0.18 kcal/mol
GAAAGCACGTGTTTGG	-0.11 kcal/mol
AAGTACACGTGTGTTG	0.08 kcal/mol
TGTATCACGTGGAGGG	0.05 kcal/mol
TGAGTCACGTGTGGCA	0.1 kcal/mol
TTAATCACGTGGAAAT	0.37 kcal/mol
CATGACACGTGGTTAG	-0.07 kcal/mol
TGTTGCACGTGGTCCG	-0.07 kcal/mol
ATCATCACGTGGGGTA	-0.01 kcal/mol
TTTTTCACGTGACAGA	0.43 kcal/mol
TTGTTCACGTGGTATT	0.26 kcal/mol
TAGTCCACGTGGTTCG	0.12 kcal/mol
GGAGTCACGTGGGGAC	-0.01 kcal/mol
GTAGACACGTGGTCGT	-0.12 kcal/mol

Sequence	relative binding free energy
TGGGGCACGTGAAGTC	0.19 kcal/mol
GCGCTCACGTGGAGGG	0.22 kcal/mol
TGCGTCACGTGAATAG	0.31 kcal/mol
GGTTCCACGTGTAGTT	0.27 kcal/mol
CCGTTCACGTGTTTGG	0.24 kcal/mol
GTGAACACGTGGTTTG	0.05 kcal/mol
CTGATCACGTGGCGGG	-0.01 kcal/mol
CGGTGCACGTGAGAGG	0.09 kcal/mol
GAAAACACGTGGGTGT	-0.04 kcal/mol
TATATCACGTGGCGGA	0 kcal/mol
CGTTACACGTGATGGG	0.22 kcal/mol
ATTAGCACGTGTTGAA	-0.01 kcal/mol
TGCTTCACGTGAGGTT	0.32 kcal/mol
TTCTTCACGTGTAGAA	0.35 kcal/mol
TTACTCACGTGCTGTG	0.17 kcal/mol
GTGGGCACGTGGAAGA	0.05 kcal/mol
GGTGTCACGTGATCGG	0.26 kcal/mol
ATTGTCACGTGTCCGT	0.03 kcal/mol
TGATTCACGTGGTCGG	0.09 kcal/mol
CTTAACACGTGGTTTG	0.02 kcal/mol
TTTTGCACGTGTACAT	0.01 kcal/mol
